# Measured values reported in the supplement of paper PMC8728848.
# This is one part of the list.
# B1: EEA (Euonymus europaeus) (protein)
# chain: MASTIIATGPTYRVYCRAAPNYNMIVGKGVAFLAPIDETNELQYWYKDDTYSYIKDEAGLPAFSLVNKATGLTLKHSNHHPVPVKLVTYNPNVVDESVLWSQADDRGDGYSAIRSLTNPASHLEAAPLNDWSYNGAIIMGGVWIDAYNQQWKIEPHTG
# How the values were obtained:
# Experiment in all cases: glycan array binding signal (z-score within array); higher = stronger binding
# Conditions in all cases: glycan notation: IUPAC condensed, linker removed
# [1] = biological target: Fuc(a1-2)Gal
# Summary of the method: (§1)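 Negative Z-scores can be read as non-binding. The Z-score is calculated within each array and then averaged across arrays of one protein sequence at different concentrations or buffers and across linkers. Arrays, 3228 in all, were curated from the Consortium for Functional Glycomics database and kept only where the protein sequence was available.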
# [2] = biological target: Fuc(a1-2)Gal(b1-3)GalNAc
# Summary of the method: as §1
# [3] = biological target: Fuc(a1-2)Gal(b1-3)GalNAc(a1-3)[Fuc(a1-2)]Gal(b1-4)Glc
# Summary of the method: as §1
# [4] = biological target: Fuc(a1-2)Gal(b1-3)GalNAc(a1-3)[Fuc(a1-2)]Gal(b1-4)GlcNAc
# Summary of the method: as §1
# [5] = biological target: Fuc(a1-2)Gal(b1-3)GalNAc(b1-3)Gal
# Summary of the method: as §1
# [6] = biological target: Fuc(a1-2)Gal(b1-3)GalNAc(b1-3)Gal(a1-4)Gal(b1-4)Glc
# Summary of the method: as §1
# [7] = biological target: Fuc(a1-2)Gal(b1-3)GalNAc(b1-3)Gal(b1-4)Glc
# Summary of the method: as §1
# [8] = biological target: Fuc(a1-2)Gal(b1-3)GalNAc(b1-4)[Neu5Ac(a2-3)]Gal(b1-4)Glc
# Summary of the method: as §1
# [9] = biological target: Fuc(a1-2)Gal(b1-3)GlcNAc
# Summary of the method: as §1
# [10] = biological target: Fuc(a1-2)Gal(b1-3)GlcNAc(b1-2)Man(a1-3)[Fuc(a1-2)Gal(b1-3)GlcNAc(b1-2)Man(a1-6)]Man(b1-4)GlcNAc(b1-4)GlcNAc
# Summary of the method: as §1
# [11] = biological target: Fuc(a1-2)Gal(b1-3)GlcNAc(b1-2)Man(a1-3)[Fuc(a1-2)Gal(b1-3)GlcNAc(b1-2)Man(a1-6)]Man(b1-4)GlcNAc(b1-4)[Fuc(a1-6)]GlcNAc
# Summary of the method: as §1
# [12] = biological target: Fuc(a1-2)Gal(b1-3)GlcNAc(b1-3)Gal(b1-4)Glc
# Summary of the method: as §1
# [13] = biological target: Fuc(a1-2)Gal(b1-3)GlcNAc(b1-3)GalNAc
# Summary of the method: as §1
# [14] = biological target: Fuc(a1-2)Gal(b1-3)GlcNAc(b1-3)[Fuc(a1-2)Gal(b1-3)GlcNAc(b1-6)]GalNAc
# Summary of the method: as §1
# [15] = biological target: Fuc(a1-2)Gal(b1-3)GlcNAc(b1-3)[Gal(b1-4)GlcNAc(b1-6)]Gal(b1-4)Glc
# Summary of the method: as §1
# [16] = biological target: Fuc(a1-2)Gal(b1-3)GlcNAc(b1-3)[Neu5Ac(a2-6)Gal(b1-4)GlcNAc(b1-6)]Gal(b1-4)Glc
# Summary of the method: as §1
# [17] = biological target: Fuc(a1-2)Gal(b1-3)GlcNAc6S
# Summary of the method: as §1
# [18] = biological target: Fuc(a1-2)Gal(b1-3)[Fuc(a1-4)]GlcNAc
# Summary of the method: as §1
# [19] = biological target: Fuc(a1-2)Gal(b1-3)[Fuc(a1-4)]GlcNAc(b1-2)Man(a1-3)[Fuc(a1-2)Gal(b1-3)[Fuc(a1-4)]GlcNAc(b1-2)Man(a1-3)]Man(b1-4)GlcNAc(b1-4)GlcNAc
# Summary of the method: as §1
# [20] = biological target: Fuc(a1-2)Gal(b1-3)[Fuc(a1-4)]GlcNAc(b1-2)Man(a1-3)[Fuc(a1-2)Gal(b1-3)[Fuc(a1-4)]GlcNAc(b1-2)Man(a1-6)]Man(b1-4)GlcNAc(b1-4)[Fuc(a1-6)]GlcNAc(b1-4)[Fuc(a1-6)]GlcNAc
# Summary of the method: as §1
# [21] = biological target: Fuc(a1-2)Gal(b1-3)[Fuc(a1-4)]GlcNAc(b1-3)[Fuc(a1-3)[Gal(b1-4)]GlcNAc(b1-6)]Gal(b1-4)Glc
# Summary of the method: as §1
# [22] = biological target: Fuc(a1-2)Gal(b1-3)[Fuc(a1-4)]GlcNAc(b1-3)[Gal(b1-4)GlcNAc(b1-6)]Gal(b1-4)Glc
# Summary of the method: as §1
binder,measurement,setting,value
B1,glycan array binding signal (z-score),[1],-0.14
same,glycan array binding signal (z-score),[2],0.657
same,glycan array binding signal (z-score),[3],-0.22
same,glycan array binding signal (z-score),[4],-0.193
same,glycan array binding signal (z-score),[5],-0.272
same,glycan array binding signal (z-score),[6],-0.238
same,glycan array binding signal (z-score),[7],1.55
same,glycan array binding signal (z-score),[8],-0.255
same,glycan array binding signal (z-score),[9],0.913
same,glycan array binding signal (z-score),[10],0.509
same,glycan array binding signal (z-score),[11],-0.219
same,glycan array binding signal (z-score),[12],1.08
same,glycan array binding signal (z-score),[13],-0.234
same,glycan array binding signal (z-score),[14],-0.124
same,glycan array binding signal (z-score),[15],-0.054
same,glycan array binding signal (z-score),[16],0.158
same,glycan array binding signal (z-score),[17],-0.217
same,glycan array binding signal (z-score),[18],-0.173
same,glycan array binding signal (z-score),[19],-0.1
same,glycan array binding signal (z-score),[20],-0.18
same,glycan array binding signal (z-score),[21],-0.242
same,glycan array binding signal (z-score),[22],-0.191
